# From ChEMBL document CHEMBL5606458, “ASAP - ZIKV NS2B-NS3 protease fluorescence single point” (2024)
# Hit rate of the full screen: of about 2,700 compounds, about 160 (5.9%) showed an effect of 50% or more. This is one part of the list.
# Molecular target: Nonstructural protein 3 (Zika virus) (UniProt A0A024AXB9)
# [1] = PRVABC59, Concentration 15.0 uM, Number of replicates 1.0
# [2] = PRVABC59, Concentration 10.0 uM, Number of replicates 1.0
# [3] = PRVABC59, Concentration 50.0 uM, Number of replicates 1.0
# UniProt A0A024AXB9, sequence (A0A024AXB9 as listed by the source): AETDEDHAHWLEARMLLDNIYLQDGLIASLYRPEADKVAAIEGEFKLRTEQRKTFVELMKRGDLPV
smiles,measurement,setting,value
COc1cc(Cc2cc(F)c3c(c2)CC(=O)N3)nc(N2CCNCC2)n1,inhibition,"PRVABC59, Concentration 49.5 uM, Number of replicates 2.0, Standard deviation 12.783278069366851 %",0.305%
same,inhibition,"PRVABC59, Concentration 99.01 uM, Number of replicates 2.0, Standard deviation 2.2087504404602174 %",14.9%
same,inhibition,"PRVABC59, Concentration 198.0 uM, Number of replicates 2.0, Standard deviation 3.2930472392345242 %",25.3%
COc1ccccc1N1CCN(C(=O)c2cccc(Cc3cccc4c(CO)cc(C)nc34)c2)CC1,inhibition,"PRVABC59, Concentration 49.95 uM, Number of replicates 2.0, Standard deviation 0.1677906500193262 %",-4.17%
same,inhibition,"PRVABC59, Concentration 99.9 uM, Number of replicates 2.0, Standard deviation 0.6187282959007806 %",1.87%
Cc1cccc(OC2CN(C(=O)c3cc(Cl)ccc3NS(=O)(=O)c3ccc(Oc4ccccc4Cl)cc3)C2)c1,inhibition,[1],0.929%
CCCOc1ccc([C@H](C)NC(=O)C2CCN(c3ccc(C=O)cc3)CC2)cc1,inhibition,[2],6.77%
COc1cccc2c1OC[C@@H](NC(=O)C1CCN(c3ccc(C=O)cc3)CC1)C2,inhibition,[3],5.34%
NCC1(c2ccccn2)CCCC1,inhibition,"PRVABC59, Concentration 99.5 uM, Number of replicates 2.0, Standard deviation 2.993295143702377 %",-6.69%
N=C(N)NC[C@@H]1CCCN(C(=O)[C@H](Cc2ccc(CN)cc2)NC(=O)c2ccccc2)C1,inhibition,"PRVABC59, Concentration 49.5 uM, Number of replicates 2.0, Standard deviation 0.6960698702606968 %",2.68%
same,inhibition,"PRVABC59, Concentration 99.01 uM, Number of replicates 2.0, Standard deviation 1.1872902095434084 %",12.8%
same,inhibition,"PRVABC59, Concentration 198.0 uM, Number of replicates 2.0, Standard deviation 0.3804343133987339 %",26.8%
Cc1cc(CO)c2cccc(Cc3cccc(NC(=O)[C@@H](N)c4ccsc4)c3)c2n1,inhibition,"PRVABC59, Concentration 49.95 uM, Number of replicates 2.0, Standard deviation 2.2932916237764616 %",14.9%
same,inhibition,"PRVABC59, Concentration 99.9 uM, Number of replicates 2.0, Standard deviation 2.1427484756921573 %",24.4%
Cc1cc(CO)c2cccc(Cc3ccccc3C(=O)N[C@@H](CCC(N)=O)C(=O)O)c2n1,inhibition,"PRVABC59, Concentration 49.95 uM, Number of replicates 2.0, Standard deviation 1.0696657731948411 %",-4.71%
same,inhibition,"PRVABC59, Concentration 99.9 uM, Number of replicates 2.0, Standard deviation 0.7655451252044032 %",0.649%
CCn1nnc(CNC(=O)[C@]2(c3ccc(F)cc3)CCCNC2)n1,inhibition,"PRVABC59, Concentration 49.5 uM, Number of replicates 2.0, Standard deviation 1.307616764643706 %",-3.12%
same,inhibition,"PRVABC59, Concentration 99.01 uM, Number of replicates 2.0, Standard deviation 2.1661130869263534 %",-2.65%
same,inhibition,"PRVABC59, Concentration 198.0 uM, Number of replicates 2.0, Standard deviation 0.015898128433097316 %",-2.33%
N#Cc1ccc(NC(=O)C2CCN(c3ccc(C=O)cc3)CC2)c(I)c1,inhibition,[3],24.2%
COc1ncc(NC(=O)c2cc(Cl)ccc2NS(=O)(=O)c2ccc(Oc3ccccc3Cl)cc2)cc1Br,inhibition,[1],67.3%
O=C(Nc1cccc(OC(F)(F)F)c1)c1cc(Cl)ccc1NS(=O)(=O)c1ccc(Oc2ccccc2Cl)cc1,inhibition,[1],40.8%
O[C@]1(C(F)(F)F)CC[C@H](CNCc2nnc3ccccn23)CC1,inhibition,"PRVABC59, Concentration 49.5 uM, Number of replicates 2.0, Standard deviation 1.3334657429368013 %",-1.13%
same,inhibition,"PRVABC59, Concentration 99.01 uM, Number of replicates 2.0, Standard deviation 1.3822305106743 %",-1.93%
same,inhibition,"PRVABC59, Concentration 198.0 uM, Number of replicates 2.0, Standard deviation 2.4886877009271497 %",-0.977%
CC(C)(CO)NC(=O)c1cc(Cl)cc(NC(=O)[C@@H](N)c2cccc(Cl)c2)c1,inhibition,"PRVABC59, Concentration 49.5 uM, Number of replicates 2.0, Standard deviation 0.37125456120566713 %",3.24%
same,inhibition,"PRVABC59, Concentration 99.01 uM, Number of replicates 2.0, Standard deviation 0.3445899360267649 %",7.58%
same,inhibition,"PRVABC59, Concentration 198.0 uM, Number of replicates 2.0, Standard deviation 0.35074337590935545 %",13.2%
O=Cc1ccc(N2CCC(C(=O)NCc3ccc4c(c3)OCO4)CC2)cc1,inhibition,[2],7.09%
O=C(c1cc(Cl)ccc1NS(=O)(=O)c1ccc(Oc2ccccc2Cl)cc1)N(Cc1ccccc1)Cc1ccc(Br)cc1,inhibition,[1],41.9%
O=C(NCc1ccc2c(c1)OCO2)c1cc(Cl)ccc1NS(=O)(=O)c1ccc(Oc2ccccc2Cl)cc1,inhibition,[1],29.7%
O=Cc1ccc(N2CCC(C(=O)NC[C@H](O)c3ccc(O)cc3)CC2)cc1,inhibition,[3],14.8%
CNc1ccc(-c2ccccc2C(=O)Nc2cnn(C)c2)cn1,inhibition,"PRVABC59, Concentration 49.5 uM, Number of replicates 2.0, Standard deviation 1.5073145177408105 %",-1.84%
same,inhibition,"PRVABC59, Concentration 99.01 uM, Number of replicates 2.0, Standard deviation 1.7123668593538302 %",0.301%
same,inhibition,"PRVABC59, Concentration 198.0 uM, Number of replicates 2.0, Standard deviation 2.174633915289801 %",0.018%
NC(=O)c1cccc(NC(=O)[C@@H](NC(=O)c2ccc(Oc3ccc(C(F)(F)F)cc3)cc2)c2ccc(OCc3ccccc3)cc2)c1,inhibition,"PRVABC59, Concentration 49.5 uM, Number of replicates 2.0, Standard deviation 0.46044521626223894 %",6.3%
same,inhibition,"PRVABC59, Concentration 99.01 uM, Number of replicates 2.0, Standard deviation 0.010097036204057861 %",14.7%
same,inhibition,"PRVABC59, Concentration 198.0 uM, Number of replicates 2.0, Standard deviation 0.34129506399757725 %",30.3%
O=Cc1ccc(N2CCC(C(=O)N3CCNC(=O)C34CCCCC4)CC2)cc1,inhibition,[3],25.5%
CC(C)(C)C(=O)Nc1cccc(C(=O)O)c1,inhibition,"PRVABC59, Concentration 49.5 uM, Number of replicates 2.0, Standard deviation 1.311724733674366 %",-3.38%
same,inhibition,"PRVABC59, Concentration 99.01 uM, Number of replicates 2.0, Standard deviation 1.8264521879544453 %",-1.31%
same,inhibition,"PRVABC59, Concentration 198.0 uM, Number of replicates 2.0, Standard deviation 2.1564588033659025 %",0.879%
O=C(NC[C@@H](c1ccc(Cl)cc1)N1CCCC1)c1cc(Cl)ccc1NS(=O)(=O)c1ccc(Oc2ccccc2Cl)cc1,inhibition,[1],17.8%
O=C(O)c1cnn(C2CCN(C(=O)c3ccnc4[nH]cnc34)CC2)c1,inhibition,"PRVABC59, Concentration 49.5 uM, Number of replicates 2.0, Standard deviation 0.4769423778532216 %",-0.77%
same,inhibition,"PRVABC59, Concentration 99.01 uM, Number of replicates 2.0, Standard deviation 0.8068274680953539 %",-0.961%
same,inhibition,"PRVABC59, Concentration 198.0 uM, Number of replicates 2.0, Standard deviation 0.6955409210557122 %",-0.489%
